{"source": "the supplement of paper PMC11741623", "binders": {"B1": {"name": "RND2, P52198 (protein)", "chain": "MEGQSGRCKIVVVGDAECGKTALLQVFAKDAYPGSYVPTVFENYTASFEIDKRRIELNMWDTSGSSYYDNVRPLAYPDSDAVLICFDISRPETLDSVLKKWQGETQEFCPNAKVVLVGCKLDMRTDLATLRELSKQRLIPVTHEQGTVLAKQVGAVSYVECSSRSSERSVRDVFHVATVASLGRGHRQLRRTDSRRGMQRSAQLSGRPDRGNEGEIHKDRAKSCNLM"}, "B2": {"name": "SERP2, Q8N6R1 (protein)", "chain": "MVAKQRIRMANEKHSKNITQRGNVAKTLRPQEEKYPVGPWLLALFVFVVCGSAIFQIIQSIRMGM"}, "B3": {"name": "SCNN1D, P51172 (protein)", "chain": "MRAVLSQKTTPLPRYLWPGHLSGPRRLTWSWCSDHRTPTCRELGSPHPTPCTGPARGWPRRGGGPCGFTSAGHVLCGYPLCLLSGPIQGCGTGLGDSSMAFLSRTSPVAAASFQSRQEARGSILLQSCQLPPQWLSTEAWTGEWKQPHGGALTSRSPGPVAPQRPCHLKGWQHRPTQHNAACKQGQAAAQTPPRPGPPSAPPPPPKEGHQEGLVELPASFRELLTFFCTNATIHGAIRLVCSRGNRLKTTSWGLLSLGALVALCWQLGLLFERHWHRPVLMAVSVHSERKLLPLVTLCDGNPRRPSPVLRHLELLDEFARENIDSLYNVNLSKGRAALSATVPRHEPPFHLDREIRLQRLSHSGSRVRVGFRLCNSTGGDCFYRGYTSGVAAVQDWYHFHYVDILALLPAAWEDSHGSQDGHFVLSCSYDGLDCQARQFRTFHHPTYGSCYTVDGVWTAQRPGITHGVGLVLRVEQQPHLPLLSTLAGIRVMVHGRNHTPFLGHHSFSVRPGTEATISIREDEVHRLGSPYGHCTAGGEGVEVELLHNTSYTRQACLVSCFQQLMVETCSCGYYLHPLPAGAEYCSSARHPAWGHCFYRLYQDLETHRLPCTSRCPRPCRESAFKLSTGTSRWPSAKSAGWTLATLGEQGLPHQSHRQRSSLAKINIVYQELNYRSVEEAPVYSVPQLLSAMGSLCSLWFGASVLSLLELLELLLDASALTLVLGGRRLRRAWFSWPRASPASGASSIKPEASQMPPPAGGTSDDPEPSGPHLPRVMLPGVLAGVSAEESWAGPQPLETLDT"}, "B4": {"name": "SATB2, Q9UPW6 (protein)", "chain": "MERRSESPCLRDSPDRRSGSPDVKGPPPVKVARLEQNGSPMGARGRPNGAVAKAVGGLMIPVFCVVEQLDGSLEYDNREEHAEFVLVRKDVLFSQLVETALLALGYSHSSAAQAQGIIKLGRWNPLPLSYVTDAPDATVADMLQDVYHVVTLKIQLQSCSKLEDLPAEQWNHATVRNALKELLKEMNQSTLAKECPLSQSMISSIVNSTYYANVSATKCQEFGRWYKKYKKIKVERVERENLSDYCVLGQRPMHLPNMNQLASLGKTNEQSPHSQIHHSTPIRNQVPALQPIMSPGLLSPQLSPQLVRQQIAMAHLINQQIAVSRLLAHQHPQAINQQFLNHPPIPRAVKPEPTNSSVEVSPDIYQQVRDELKRASVSQAVFARVAFNRTQGLLSEILRKEEDPRTASQSLLVNLRAMQNFLNLPEVERDRIYQDERERSMNPNVSMVSSASSSPSSSRTPQAKTSTPTTDLPIKVDGANINITAAIYDEIQQEMKRAKVSQALFAKVAANKSQGWLCELLRWKENPSPENRTLWENLCTIRRFLNLPQHERDVIYEEESRHHHSERMQHVVQLPPEPVQVLHRQQSQPAKESSPPREEAPPPPPPTEDSCAKKPRSRTKISLEALGILQSFIHDVGLYPDQEAIHTLSAQLDLPKHTIIKFFQNQRYHVKHHGKLKEHLGSAVDVAEYKDEELLTESEENDSEEGSEEMYKVEAEEENADKSKAAPAEIDQR"}}, "note": "This is one part of the list. Interaction screen of human proteins with wild-type SARS-CoV-2 proteins by split-DHFR complementation in yeast, 1 µg/mL methotrexate. Value = fitness of the pair (three or more lineages) minus that of the viral protein without a human partner, on a scale set by negative (0) and fused positive (1) controls, mean of up to three cultures; higher = more likely to interact. Active = false discovery rate below 0.05 (one-sided t-test) in at least one culture. Nearly all pairs are not hits, and differences among them are mostly noise (correlation between cultures about 0.3); most hits were seen in one culture only. Human sequences are the Swiss-Prot entries looked up by gene name; the clone may be another isoform. NSP2 values were corrected by the authors for a growth advantage. Listed are human proteins with a hit and a random twelfth of the others.", "data": [{"target": "SARS-CoV-2 M", "assay": "yeast fitness gain over the viral ORF with no human partner (scaled fitness); higher = more likely to interact", "protocol": "(§1)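 Split mouse DHFR complementation in pooled diploid yeast: human ORFeome clones carry one fragment and viral ORFs the other; barcoded lineages compete in 1 µg/mL methotrexate and fitness is read by barcode sequencing in up to three cultures.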", "values": [{"binder": "B1", "yeast fitness gain": "inactive: 0.0645"}, {"binder": "B2", "yeast fitness gain": "inactive: 0.0451"}, {"binder": "B3", "yeast fitness gain": "inactive: 0.0565"}, {"binder": "B4", "yeast fitness gain": "inactive: 0.151"}]}, {"target": "SARS-CoV-2 NSP1", "assay": "yeast fitness gain over the viral ORF with no human partner (scaled fitness); higher = more likely to interact", "protocol": "as §1", "values": [{"binder": "B1", "yeast fitness gain": "inactive: -0.0255"}, {"binder": "B2", "yeast fitness gain": "inactive: 0.02"}, {"binder": "B3", "yeast fitness gain": "inactive: -0.0304"}, {"binder": "B4", "yeast fitness gain": "inactive: -0.00807"}]}, {"target": "SARS-CoV-2 NSP10", "assay": "yeast fitness gain over the viral ORF with no human partner (scaled fitness); higher = more likely to interact", "protocol": "as §1", "values": [{"binder": "B1", "yeast fitness gain": "inactive: -0.124"}, {"binder": "B2", "yeast fitness gain": "inactive: 0.0527"}, {"binder": "B3", "yeast fitness gain": "inactive: -0.0301"}]}, {"target": "SARS-CoV-2 NSP12", "assay": "yeast fitness gain over the viral ORF with no human partner (scaled fitness); higher = more likely to interact", "protocol": "as §1", "values": [{"binder": "B1", "yeast fitness gain": "inactive: -0.0472"}, {"binder": "B2", "yeast fitness gain": "inactive: 0.0145"}, {"binder": "B3", "yeast fitness gain": "inactive: -0.0146"}, {"binder": "B4", "yeast fitness gain": "inactive: -0.0451"}]}, {"target": "SARS-CoV-2 NSP13", "assay": "yeast fitness gain over the viral ORF with no human partner (scaled fitness); higher = more likely to interact", "protocol": "as §1", "values": [{"binder": "B1", "yeast fitness gain": "inactive: -0.187"}, {"binder": "B2", "yeast fitness gain": "inactive: -0.0248"}, {"binder": "B3", "yeast fitness gain": "inactive: -0.0086"}, {"binder": "B4", "yeast fitness gain": "inactive: 0.00268"}]}, {"target": "SARS-CoV-2 NSP2", "assay": "yeast fitness gain over the viral ORF with no human partner (scaled fitness); higher = more likely to interact", "protocol": "as §1", "values": [{"binder": "B1", "yeast fitness gain": "inactive: -0.0301"}, {"binder": "B2", "yeast fitness gain": "inactive: -0.143"}, {"binder": "B3", "yeast fitness gain": "inactive: -0.13"}, {"binder": "B4", "yeast fitness gain": "inactive: -0.16"}]}, {"target": "SARS-CoV-2 NSP5", "assay": "yeast fitness gain over the viral ORF with no human partner (scaled fitness); higher = more likely to interact", "protocol": "as §1", "values": [{"binder": "B1", "yeast fitness gain": "inactive: 0.0819"}, {"binder": "B2", "yeast fitness gain": "inactive: -0.118"}, {"binder": "B3", "yeast fitness gain": "inactive: -0.0383"}, {"binder": "B4", "yeast fitness gain": "inactive: -0.00105"}]}, {"target": "SARS-CoV-2 NSP7", "assay": "yeast fitness gain over the viral ORF with no human partner (scaled fitness); higher = more likely to interact", "protocol": "as §1", "values": [{"binder": "B1", "yeast fitness gain": "inactive: 0.044"}, {"binder": "B2", "yeast fitness gain": "inactive: -0.166"}, {"binder": "B3", "yeast fitness gain": "inactive: -0.0757"}, {"binder": "B4", "yeast fitness gain": "inactive: 0.0149"}]}, {"target": "SARS-CoV-2 NSP9", "assay": "yeast fitness gain over the viral ORF with no human partner (scaled fitness); higher = more likely to interact", "protocol": "as §1", "values": [{"binder": "B1", "yeast fitness gain": "inactive: -0.064"}, {"binder": "B2", "yeast fitness gain": "inactive: -0.0319"}, {"binder": "B3", "yeast fitness gain": "inactive: -0.183"}]}, {"target": "SARS-CoV-2 ORF10", "assay": "yeast fitness gain over the viral ORF with no human partner (scaled fitness); higher = more likely to interact", "protocol": "as §1", "values": [{"binder": "B1", "yeast fitness gain": "inactive: -0.063"}, {"binder": "B2", "yeast fitness gain": "inactive: -0.0955"}, {"binder": "B3", "yeast fitness gain": "inactive: 0.0558"}]}, {"target": "SARS-CoV-2 ORF3B", "assay": "yeast fitness gain over the viral ORF with no human partner (scaled fitness); higher = more likely to interact", "protocol": "as §1", "values": [{"binder": "B1", "yeast fitness gain": "inactive: -0.065"}, {"binder": "B2", "yeast fitness gain": "inactive: 0.0489"}, {"binder": "B3", "yeast fitness gain": "inactive: -0.134"}]}, {"target": "SARS-CoV-2 ORF6", "assay": "yeast fitness gain over the viral ORF with no human partner (scaled fitness); higher = more likely to interact", "protocol": "as §1", "values": [{"binder": "B1", "yeast fitness gain": "inactive: -0.0117"}, {"binder": "B2", "yeast fitness gain": "inactive: 0.0174"}, {"binder": "B3", "yeast fitness gain": "inactive: -0.0122"}, {"binder": "B4", "yeast fitness gain": "inactive: 0.0697"}]}, {"target": "SARS-CoV-2 ORF7A", "assay": "yeast fitness gain over the viral ORF with no human partner (scaled fitness); higher = more likely to interact", "protocol": "as §1", "values": [{"binder": "B1", "yeast fitness gain": "inactive: -0.0465"}, {"binder": "B2", "yeast fitness gain": "inactive: -0.00754"}, {"binder": "B3", "yeast fitness gain": "inactive: -0.0816"}]}, {"target": "SARS-CoV-2 ORF7B", "assay": "yeast fitness gain over the viral ORF with no human partner (scaled fitness); higher = more likely to interact", "protocol": "as §1", "values": [{"binder": "B1", "yeast fitness gain": "inactive: -0.217"}, {"binder": "B2", "yeast fitness gain": "inactive: 0.0254"}, {"binder": "B3", "yeast fitness gain": "inactive: 0.0288"}]}, {"target": "SARS-CoV-2 ORF8", "assay": "yeast fitness gain over the viral ORF with no human partner (scaled fitness); higher = more likely to interact", "protocol": "as §1", "values": [{"binder": "B1", "yeast fitness gain": "inactive: 0.0528"}, {"binder": "B2", "yeast fitness gain": "inactive: 0.0556"}, {"binder": "B3", "yeast fitness gain": "inactive: 0.0627"}]}, {"target": "SARS-CoV-2 ORF9B", "assay": "yeast fitness gain over the viral ORF with no human partner (scaled fitness); higher = more likely to interact", "protocol": "as §1", "values": [{"binder": "B1", "yeast fitness gain": "inactive: -0.0573"}, {"binder": "B2", "yeast fitness gain": "inactive: 0.0116"}, {"binder": "B3", "yeast fitness gain": "inactive: 0.0148"}]}, {"target": "SARS-CoV-2 ORF9Bwu (the 73-codon ORF)", "assay": "yeast fitness gain over the viral ORF with no human partner (scaled fitness); higher = more likely to interact", "protocol": "as §1", "values": [{"binder": "B1", "yeast fitness gain": "inactive: -0.0233"}, {"binder": "B2", "yeast fitness gain": "inactive: -0.101"}, {"binder": "B3", "yeast fitness gain": "inactive: -0.0171"}]}, {"target": "SARS-CoV-2 S", "assay": "yeast fitness gain over the viral ORF with no human partner (scaled fitness); higher = more likely to interact", "protocol": "as §1", "values": [{"binder": "B1", "yeast fitness gain": "inactive: -0.0592"}, {"binder": "B2", "yeast fitness gain": "inactive: -0.147"}, {"binder": "B3", "yeast fitness gain": "inactive: -0.0286"}, {"binder": "B4", "yeast fitness gain": "inactive: 0.086"}]}, {"target": "SARS-CoV-2 NSP15", "assay": "yeast fitness gain over the viral ORF with no human partner (scaled fitness); higher = more likely to interact", "protocol": "as §1", "values": [{"binder": "B2", "yeast fitness gain": "inactive: -0.0432"}, {"binder": "B3", "yeast fitness gain": "inactive: -0.245"}]}, {"target": "SARS-CoV-2 NSP6", "assay": "yeast fitness gain over the viral ORF with no human partner (scaled fitness); higher = more likely to interact", "protocol": "as §1", "values": [{"binder": "B2", "yeast fitness gain": "inactive: -0.152"}, {"binder": "B3", "yeast fitness gain": "inactive: -0.104"}]}, {"target": "SARS-CoV-2 NSP8", "assay": "yeast fitness gain over the viral ORF with no human partner (scaled fitness); higher = more likely to interact", "protocol": "as §1", "values": [{"binder": "B2", "yeast fitness gain": "inactive: 0.0479"}, {"binder": "B3", "yeast fitness gain": "inactive: -0.0821"}]}, {"target": "SARS-CoV-2 NSP14", "assay": "yeast fitness gain over the viral ORF with no human partner (scaled fitness); higher = more likely to interact", "protocol": "as §1", "values": [{"binder": "B3", "yeast fitness gain": "inactive: -0.524"}]}, {"target": "SARS-CoV-2 NSP16", "assay": "yeast fitness gain over the viral ORF with no human partner (scaled fitness); higher = more likely to interact", "protocol": "as §1", "values": [{"binder": "B3", "yeast fitness gain": "inactive: 0.0516"}]}, {"target": "SARS-CoV-2 ORF3A", "assay": "yeast fitness gain over the viral ORF with no human partner (scaled fitness); higher = more likely to interact", "protocol": "as §1", "values": [{"binder": "B3", "yeast fitness gain": "inactive: -0.226"}]}]}
